# Measured values taken from PubChem BioAssay AID624296 (National Center for Advancing Translational Sciences (NCATS), 2012).
# The whole screen tested about 350,000 compounds, of which about 9,900 (2.8%) were called active. The inconclusive results got no clear call from the source; some entries with a clear call stand among them for comparison. Calls follow the shape of the dose curve; as a rule, active = well fitted activation curve with a large enough effect; inconclusive = small, poorly fitted or top-dose-only effect; inactive = no such curve, though single readings can be large or run the other way. Potencies of inconclusive entries are left out as doubtful fits.
# Assay: A quantitative high throughput screen for small molecules that induce DNA re-replication in MCF 10a normal breast cells. Also: nearly all actives have a fitted effect of over 50% in size. As to activity, positive = re-replication: % of control where 0% means no effect.
# Conditions: MCF 10A DNA re-replication, Hoechst nuclear intensity, 48 h; activity, positive = re-replication: at 46.1 µM (top of the series)
# Potency is read from the fitted curve at half-maximal effect; tags tell the direction and shape of the fitted curve.
Compound,Potency,"activity, positive = re-replication"
COc1ccc(C2=NN(c3ccccc3)C(c3ccc(OC)c(OC)c3)C2)cc1 (centres undefined),"inconclusive [activator, partial curve, poor fit]",–
O=C(Nc1nccs1)C12CC3CC(C1)CC(C(=O)Nc1nccs1)(C3)C2,"inconclusive [activator, partial curve, poor fit]",–
O=S(=O)(Nc1ccc(-c2nc3cccnc3s2)cc1)c1ccccc1F,"inconclusive [activator, partial curve, poor fit]",–
COc1ccc(-c2cc(=O)oc3c(C)c(O)c(CN(C)C)cc23)cc1,inactive,–
CN(CC(=O)Nc1ccccc1Cl)C(=O)c1cccc(S(=O)(=O)N2CCN(c3ccccc3)CC2)c1,inactive,–
CCN(C(=S)Nc1ccc(Oc2ccccc2)cc1)c1ccccc1,"inconclusive [activator, single point]",–
Cc1cccc(CN2CCCC(C(=O)Nc3ccccc3Oc3cccnc3)C2)c1 (centres undefined),inactive,–
CCC(=O)c1cn(CC(=O)Nc2cccc(C)c2C)c2ccccc12,inactive,–
N#Cc1ccc(C(=O)OCc2cccc(S(=O)(=O)N3CCOCC3)c2)cc1,"inconclusive [activator, partial curve, poor fit]",–
COc1ccccc1N1CCN(S(=O)(=O)c2cn(C)cn2)CC1,inactive,–
COc1ccc(C(c2c(C)[nH][nH]c2=O)c2c(C)[nH][nH]c2=O)cc1Br,inactive,–
Cc1cccnc1NC(=O)CCCNC(=O)c1ccc(Cl)cc1,"inconclusive [activator, partial curve, poor fit]",–
NS(=O)(=O)c1ccc(NC(=O)/C=C/c2ccccc2[N+](=O)[O-])cc1,"inconclusive [activator, single point]",–
COc1ccc(OC)c(NC(=O)CSCc2cnn(-c3ccccc3)c2-n2cccc2)c1,"inconclusive [activator, partial curve, poor fit]",–
Cn1cc(C(=O)N2CCc3ccccc3C2)c(=O)c2cc(S(=O)(=O)N3CCCCC3)ccc21,–,inconclusive: 99.4% [activator]
CC1(C)Cc2c(c(N3CCOCC3)nc3sc4c(NCCN)ncnc4c23)CO1,"inconclusive [activator, single point]",–
Cc1csc(N/N=C/c2ccccn2)n1,"inconclusive [activator, single point]",–
O=C(CCS(=O)(=O)c1ccc(F)cc1)Nc1nnc(-c2cccs2)o1,"inconclusive [activator, single point]",–
N#C/C(=C\c1ccc(OCc2ccccc2)cc1)C(N)=O,"inconclusive [activator, full curve]",–
